{
  "source": "the supplement of paper PMC11417369",
  "note": "± gives the standard deviation of the averaged measurements. The list shows a part of the results.",
  "data": [
    {"tested_on": "PfAP2-I AP2 domain 3 (GST-tagged)", "experiment": "gcPBM binding intensity (ln(normalized median fluorescence intensity)); higher = stronger DNA binding", "how_it_was_run": "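Binding intensity is defined as the maximum Masliner-normalised natural-log median intensity across replicate spots for either probe orientation. It was measured on an Agilent 4 × 180k array of primer-extended double-stranded 36-bp intergenic genomic probes and negative controls, to which GST-tagged P. falciparum DNA-binding domains made in E. coli were applied for 1 h in 1× PBS with 1% milk, 0.2 mg/ml BSA, 0.5% salmon testes DNA and 0.03% Triton X-100. Detection was by Alexa488 anti-GST antibody and scanning at 488 nm.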", "values": [
      {"sequence": "ATATATTTTAGGAGAGTGCATTTAATATTATTTAAT [GTGCAC_site9444]", "gcPBM binding intensity (ln)": "10.7 ± 0.62"},
      {"sequence": "TATATGGGATATATGTGTACATATAAAATATGTATC [XGTACX_site3365]", "gcPBM binding intensity (ln)": "7.89 ± 0.4"},
      {"sequence": "TTTTTTTTTTTTTTTACACACATTTGAATAACTTTA [CACACA_site6810]", "gcPBM binding intensity (ln)": "8.16 ± 0.45"},
      {"sequence": "CTTAATATGAATAAAACACACATATATAATTTGTAA [CACACA_site5120]", "gcPBM binding intensity (ln)": "7.39 ± 0.48"},
      {"sequence": "AAAAGAATTAAAAAATGTACATATAATATATATATA [XGTACX_site6721]", "gcPBM binding intensity (ln)": "8.94 ± 0.18"},
      {"sequence": "AAAAAAGAAGACATCTAAGTAATAGTAACAATGTAT [CACACA_negctrl_site1660]", "gcPBM binding intensity (ln)": "7.67 ± 0.63"},
      {"sequence": "GACATATTATTCATGTGTACATATTATATGTATATA [XGTACX_site3442]", "gcPBM binding intensity (ln)": "7.8 ± 0.37"},
      {"sequence": "TATAAATATACACCCACACACATATATAAATAAATA [CACACA_site7717]", "gcPBM binding intensity (ln)": "8.04 ± 0.57"},
      {"sequence": "AAGAATTTAGAAGGCATGCACTTAAACATGCATATA", "gcPBM binding intensity (ln)": "8.47 ± 0.84"},
      {"sequence": "ATATCTTCACTTATATGTACTTACATTTTTTTTTTT [XGTACX_site8696]", "gcPBM binding intensity (ln)": "8.04 ± 0.71"},
      {"sequence": "ATAACTATATACATCTGTACATAATACATAGATAAA [XGTACX_site2795]", "gcPBM binding intensity (ln)": "7.78 ± 0.46"},
      {"sequence": "ATTTGTATATAATATATATAATTTTTTTTTTTTGTT [XGTACX_negctrl_site425]", "gcPBM binding intensity (ln)": "7.32 ± 0.45"},
      {"sequence": "TATACACATAGACACACACACATACACGCACATACA [CACACA_site6908]", "gcPBM binding intensity (ln)": "8.27 ± 0.33"},
      {"sequence": "TAATAAGTATCAAAATGTACATGACAAAAATAATTT [XGTACX_site8961]", "gcPBM binding intensity (ln)": "7.88 ± 0.79"},
      {"sequence": "TCTAAAAAAATTATATCACACATTATAAAGCATATT [CACACA_site4885]", "gcPBM binding intensity (ln)": "7.55 ± 0.54"},
      {"sequence": "ATATATATGTATATATGTACATATATGTATATATAT [XGTACX_site4772]", "gcPBM binding intensity (ln)": "8.14 ± 0.59"},
      {"sequence": "ATAATATATGCAAAAACATGCACATAATATGTAAAA [TGCATGCA_site742]", "gcPBM binding intensity (ln)": "8.51 ± 0.69"},
      {"sequence": "ATAATTTTATATAAATGTACATACATTTTTATTATA [XGTACX_site7368]", "gcPBM binding intensity (ln)": "7.63 ± 0.35"},
      {"sequence": "ATTAAATCATATGAATGTACGGATATATATATTTCC [XGTACX_site8650]", "gcPBM binding intensity (ln)": "7.53 ± 0.38"},
      {"sequence": "TGATAAATTTTCACATGTACATATATAGAATAACCT [XGTACX_site2860]", "gcPBM binding intensity (ln)": "8.19 ± 0.24"},
      {"sequence": "ATTTGAAAAAATACTACACACCATATTGTTAATTTT [CACACA_site3829]", "gcPBM binding intensity (ln)": "7.68 ± 0.54"},
      {"sequence": "AAGATTCATATAAAAAGTACAAAAAGAAAAAAATAA [XGTACX_site6033]", "gcPBM binding intensity (ln)": "7.59 ± 0.71"},
      {"sequence": "CATAATATATATTGAGCATGCTACTATTGTTAGAAA [TGCATGCA_site740]", "gcPBM binding intensity (ln)": "7.59 ± 0.59"},
      {"sequence": "ACATATAAGATATATACACACATATAAATACATTAA [CACACA_site7763]", "gcPBM binding intensity (ln)": "7.8 ± 0.34"},
      {"sequence": "AAAAAAAAAAACTACACACATACAAATATTTATATA [CACACA_site2574]", "gcPBM binding intensity (ln)": "7.32 ± 0.3"},
      {"sequence": "AGAATAGTGGAAAACACACACGTTTGAGATATGGAC [CACACA_site4782]", "gcPBM binding intensity (ln)": "8.07 ± 1"},
      {"sequence": "TTATAAAAAGAACAATTAAAAAAAAATAAAATAAAA [XGTACX_negctrl_site398]", "gcPBM binding intensity (ln)": "7.61 ± 0.81"},
      {"sequence": "TTTTTATGTTCTATATATATATATATATATATATAT [GTGCAC_negctrl_site306]", "gcPBM binding intensity (ln)": "9.29 ± 0.45"},
      {"sequence": "GCACGTGTGATTAGATGTACATAACATGTATATGTC [XGTACX_site4632]", "gcPBM binding intensity (ln)": "7.91 ± 0.53"},
      {"sequence": "CACCCACCCACATACACACACATACACATATATATA [CACACA_site1722]", "gcPBM binding intensity (ln)": "8.55 ± 0.71"},
      {"sequence": "CAAATAAAAAAAGTAGCACACATGAATAAAATATAT [CACACA_site3130]", "gcPBM binding intensity (ln)": "8.04 ± 0.69"},
      {"sequence": "ATACATACATATGTATGTACGTATGTATGTATGTAT [XGTACX_site3853]", "gcPBM binding intensity (ln)": "8 ± 0.2"},
      {"sequence": "TTTTTATTTTTTGTCTGTACATATATAAATTTATTA [XGTACX_site1525]", "gcPBM binding intensity (ln)": "7.88 ± 0.47"},
      {"sequence": "GATATAAGGGTATGAAGTACATAAATATTTTATGCT [XGTACX_site1886]", "gcPBM binding intensity (ln)": "7.79 ± 0.55"},
      {"sequence": "TATGCACGCGAACACACACACACAACTAAAAAATAA [CACACA_site7251]", "gcPBM binding intensity (ln)": "8.21 ± 0.3"},
      {"sequence": "GGAAACCCTCCCAAATGTACTTTTATAAAAAAATAC [XGTACX_site5502]", "gcPBM binding intensity (ln)": "8.2 ± 0.6"},
      {"sequence": "ATATAAGTACATATAACACACATATATTATAAGTAT [CACACA_site2647]", "gcPBM binding intensity (ln)": "8.19 ± 0.23"},
      {"sequence": "TTTGCCATAAAACACACACACATGTAAACCCCCTTT [CACACA_site1646]", "gcPBM binding intensity (ln)": "8.98 ± 0.18"},
      {"sequence": "TATACTCAGAAACACACACACACACCCAAAAAAAAA [CACACA_site4434]", "gcPBM binding intensity (ln)": "8.4 ± 0.28"},
      {"sequence": "ATACATATATAAATATGTACACACATATGTATGATC [XGTACX_site8219]", "gcPBM binding intensity (ln)": "7.82 ± 0.32"},
      {"sequence": "AAAAAAAAAAAAAAAACACACATACACCCAGACACA [CACACA_site5807]", "gcPBM binding intensity (ln)": "8.88 ± 0.42"},
      {"sequence": "TTTATATAAGGACATGCATGCTATTATTAAATATAT [TGCATGCA_site1011]", "gcPBM binding intensity (ln)": "7.79 ± 0.57"},
      {"sequence": "TAATATATAAATATATGTACATAATAAATAGGATAT [XGTACX_site3661]", "gcPBM binding intensity (ln)": "8.13 ± 0.57"},
      {"sequence": "ACTTCATAGGTTACCTGTACATATAAGGAGTTATCA [XGTACX_site4110]", "gcPBM binding intensity (ln)": "7.82 ± 0.53"}
    ]}
  ]
}
